The list shows a part of the results. The full chains were built here from the parent and the listed change. Inactive controls read about 0.05.
B1: TEV protease; numbered along this chain (parent)
chain: MGESLFKGPRDYNPISSSICHLTNESDGHTTSLYGIGFGPFIITNKHLFRRNNGTLVVQSLHGVFKVKDTTTLQQHLVDGRDMIIIRMPKDFPPFPQKLKFREPQREERICLVTTNFQTKSMSSMVSDTSCTFPSGDGIFWKHWIQTKDGQCGSPLVSTRDGFIVGIHSASNFTNTNNYFTSVPKNFMELLTNQEAQQWVSGWRLNADSVLWGGHKVFMVKPEEPFQPVKEATQL

Variants of: B1
Test: raw area under fraction-flipped curve 0-4 h after induction (AUC4h, not background-subtracted), DNA-recorder readout of cleavage of the substrate (dimensionless); higher = more cleavage of the substrate by the protease variant
Conditions: temperature: 34 °C; time window: 0-4 h after rhamnose induction
Procedure: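 In vivo DNA recorder in E. coli TOP10(DE3) ΔrhaA at 34 °C. Each TEVp single-site mutant (parent TEVp 0) is paired with a single-site variant of the 7-mer TEVs (canonical ENLYFQ|S). The substrate sits between flexible linkers in a Bxb1-sfGFP-TEVs-SsrA fusion, so cleavage stabilises Bxb1 and speeds flipping of a recombination array, read by NGS. The value is the raw area under the fraction-flipped curve over 0-4 h after rhamnose induction (AUC4h), with ≥20 reads per time point. It is not background-subtracted; inactive controls average about 0.047.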
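Further: Bxb1 expression induced with 0.2% (w/v) L-rhamnose at OD600 near 0.5, cultures sampled hourly, flipped fraction per protease–substrate barcode pair counted by paired-end Illumina sequencing.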

Row | Variant | area with substrate ENLYFDS | area with substrate ENLYFES | area with substrate ENLYFFS | area with substrate ENLYFGS | area with substrate ENLYFIS | area with substrate ENLYFLS | area with substrate ENLYFMS | area with substrate ENLYFPS | area with substrate ENLYFRS | area with substrate ENLYFSS | area with substrate ENLYFTS | area with substrate ENLYFNS | area with substrate ENLYFYS | area with substrate ENLYFHS | area with substrate ENLYFKS | area with substrate ENLYFWS | area with substrate ENLYFVS
1 | D27W | 0.0627 | 0.0598 | 0.0648 | 0.0619 | 0.0411 | 0.0571 | 0.0653 | 0.0408 | 0.0715 | 0.0331 | 0.0534 |  |  |  |  |  | 
2 | I85R | 0.0577 | 0.0646 | 0.0575 | 0.0502 | 0.0583 |  | 0.0597 | 0.0726 | 0.0581 |  | 0.0744 | 0.031 | 0.0517 |  |  |  | 
3 | I86Q | 0.0411 | 0.0449 | 0.047 |  | 0.0326 | 0.0332 | 0.0367 | 0.0373 | 0.0556 |  | 0.0482 | 0.0367 | 0.0412 | 0.0447 | 0.0343 | 0.0362 | 
4 | R109G | 0.0527 | 0.0647 | 0.0583 | 0.0542 | 0.0612 |  | 0.0737 | 0.0593 | 0.0658 |  | 0.0593 | 0.0593 | 0.0599 | 0.0561 | 0.0375 | 0.0643 | 0.0079
5 | F140G | 0.0484 | 0.0653 | 0.0699 | 0.0525 | 0.0487 |  | 0.0646 | 0.055 | 0.052 | 0.0672 | 0.0644 | 0.0647 |  | 0.0559 |  |  | 
6 | C152P | 0.0782 | 0.061 | 0.0622 |  | 0.0547 | 0.0568 | 0.0562 |  |  |  | 0.058 | 0.0638 | 0.0378 | 0.0628 |  |  | 0.0586
7 | L156Q | 0.0512 | 0.0601 | 0.0661 |  | 0.0387 | 0.0567 | 0.0535 | 0.0536 | 0.0482 | 0.0637 | 0.0476 | 0.0508 |  | 0.0526 | 0.0558 |  | 0.0477
8 | G162P | 0.0468 | 0.0644 | 0.012 | 0.0441 | 0.0403 |  | 0.0618 | 0.0703 | 0.0479 |  | 0.0485 |  | 0.0373 | 0.0413 |  |  | 
9 | V165R | 0.044 | 0.0583 | 0.0597 |  | 0.0634 | 0.0532 | 0.0431 |  | 0.0547 |  | 0.0474 | 0.0532 | 0.0085 | 0.0675 | 0.0655 | 0.0349 | 0.0393
10 | G166M | 0.0258 | 0.0566 | 0.0388 |  | 0.0479 | 0.0476 | 0.0523 | 0.069 | 0.0472 | 0.0514 | 0.0622 |  | 0.0407 | 0.0215 | 0.0509 | 0.0553 | 
11 | S171F | 0.0479 | 0.0766 | 0.0759 | 0.0593 | 0.0516 |  | 0.0489 | 0.0612 |  |  |  | 0.0469 | 0.0666 | 0.0562 | 0.0741 |  | 0.0572
12 | K185G | 0.0629 | 0.0639 | 0.0734 |  | 0.0534 | 0.075 | 0.0196 | 0.0488 | 0.0593 |  | 0.0437 | 0.0642 |  |  | 0.0553 |  | 
13 | Q234N | 0.0567 | 0.0619 | 0.0546 |  | 0.0599 | 0.0725 | 0.0686 | 0.0483 | 0.0538 |  | 0.0559 | 0.0676 | 0.0524 | 0.0569 | 0.0588 |  | 0.0701
14 | T23N |  | 0.0561 |  |  | 0.0585 |  | 0.073 | 0.0517 | 0.0628 |  |  | 0.0537 | 0.0582 | 0.0454 | 0.0565 | 0.0555 | 0.0486
15 | S26W |  | 0.0372 |  |  | 0.0578 | 0.0672 | 0.0596 | 0.0667 | 0.0579 | 0.0577 | 0.0627 | 0.0524 | 0.0541 | 0.0723 | 0.0568 | 0.0526 | 0.0611
16 | I42A |  | 0.0555 | 0.0804 | 0 | 0.0528 |  | 0.0633 | 0.0421 | 0.0526 | 0.0409 |  | 0.0499 | 0.0444 | 0.0578 | 0.0277 |  | 
17 | L77Y |  | 0.0578 |  | 0.0502 | 0.0678 |  | 0.0489 | 0.0469 | 0.0606 | 0.0615 |  |  | 0.0408 | 0.0613 | 0.0572 |  | 0.0512
18 | I110G |  | 0.06 | 0.0746 |  | 0.0412 |  | 0.0507 | 0.0565 | 0.0909 |  |  | 0.0519 |  |  |  | 0.0578 | 0.0481
19 | N116S |  | 0.0758 |  | 0.0341 | 0.0565 |  | 0.0614 | 0.0325 | 0.0793 |  |  |  |  | 0.0535 | 0.0644 |  | 0.0574
20 | I167A |  | 0.0842 | 0.0623 | 0.0577 |  |  | 0.0406 | 0.0517 | 0.071 |  | 0.0625 |  |  |  | 0.0703 | 0.0494 | 0.0551
21 | G202Q |  | 0.0521 | 0.0687 | 0.0584 | 0.057 | 0.0617 | 0.0568 | 0.0701 | 0.0469 | 0.0661 | 0.0408 | 0.0594 |  | 0.0566 | 0.0747 |  | 
22 | L211Q |  | 0.073 | 0.0734 | 0.0519 | 0.0593 |  | 0.0766 | 0.0693 | 0.0655 | 0.0518 |  | 0.0638 |  | 0.068 | 0.0542 | 0.0651 | 0.0563

From the supplement of paper PMC12217912
